Measured values from the supplement of paper PMC7826260.
The list shows a part of the results. Cleavage of a single-stranded DNA pool by Rep nickase domains was read by sequencing at 3 µM enzyme and 37 °C for 1 h; the strands have 90 letters, of which the middle is given. Values are log2 of uncut reads against the no-enzyme pool; more negative means more cut, near 0 not cut, and no call is made. Counts are relative to all reads, so uncut sequences can rise above 0 when many others are cut.

test system: T1, Rep nickase domain of cabbage leaf curl virus; experiment: uncleaved DNA left, log2 of reads against the no-enzyme library (log2 ratio); higher = less cleavage (more negative = more Rep cleavage of the k-mer); sequences stand for … in CTCGTCCG…ACCGGAGA
T1 sequence (residues 1-116, tag not shown): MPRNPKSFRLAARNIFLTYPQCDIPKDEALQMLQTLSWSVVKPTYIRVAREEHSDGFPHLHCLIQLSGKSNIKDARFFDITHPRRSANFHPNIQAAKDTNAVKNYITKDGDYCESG
Method: (§1)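 A pool of 90-nt single-stranded DNAs with seven random bases just before the constant AC of the nick site (name = the seven bases) was cut by 3 µM recombinant His6-SUMO-tagged Rep nickase domain (300 nM DNA, 50 mM HEPES pH 8.0, 50 mM NaCl, 1 mM MnCl2, 1 h, 37 °C, three replicates). Uncut DNA was amplified and sequenced.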

| Sequence | uncleaved DNA left (log2) |
| --- | --- |
| AGATTCT | -0.0797 |
| TCTCCAG | -0.553 |
| TGTGGCT | 0.0441 |
| CGTGCTA | 0.0398 |
| TACTCAA | 0.108 |
| CCGATCC | 0.17 |
| CTTTACG | -0.914 |
| GCAATGC | -0.646 |
| TCCCATT | -0.0763 |
| CTTGGAA | 0.172 |
| GAGACTT | 0.493 |
| GCGGTTC | 0.479 |
| CTATCCT | -0.338 |
| TACATTA | -0.223 |
| GTTCCTA | 0.354 |
| CAGCAGT | -0.348 |
| GCAAGCG | -0.663 |
| AATCCAC | -0.0369 |
| TTTAACA | -0.246 |
| CATCATG | -0.702 |

| Sequence | uncleaved DNA left (log2) |
| --- | --- |
| AAAGGGC | 0.168 |
| CCGTCTT | -0.887 |
| GCTCCCT | 0.136 |
| GGTTTAG | -0.266 |
| CCGTCTA | 0.0381 |
| TGAACCG | -0.772 |
| TGCTATA | -0.057 |
| CTCCGCG | -0.687 |
| GCGTAGA | 0.161 |
| TCTAGAG | -0.402 |
| CAAAGAC | 0.0162 |
| TCGGTAA | 0.00672 |
| TTTGGGC | -0.0851 |
| GTGGGCG | -0.372 |
| GTCTGCA | 0.0833 |
| TTTGCCA | -0.352 |
| ACGACCG | -0.46 |
| GTATCGC | 0.0134 |
| ATTCCTT | -0.0392 |
| GCTAACC | -0.154 |

test system: T2, Rep nickase domain of chickpea chlorotic dwarf virus; experiment: as above
T2 sequence (residues 1-124, tag not shown): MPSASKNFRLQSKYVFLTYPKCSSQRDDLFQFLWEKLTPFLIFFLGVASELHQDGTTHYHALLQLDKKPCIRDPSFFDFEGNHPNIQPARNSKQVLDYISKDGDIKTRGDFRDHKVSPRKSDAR
Method: as §1

| Sequence | uncleaved DNA left (log2) |
| --- | --- |
| AGATTCT | -1.75 |
| TCTCCAG | -0.859 |
| TGTGGCT | 0.0786 |
| CGTGCTA | 0.0957 |
| TACTCAA | -1.06 |
| CCGATCC | 0.0168 |
| CTTTACG | -0.468 |
| GCAATGC | -0.526 |
| TCCCATT | -1.8 |
| CTTGGAA | 0.427 |
| GAGACTT | 1.73 |
| GCGGTTC | 1.11 |
| CTATCCT | -2.28 |
| TACATTA | -2.29 |
| GTTCCTA | 0.855 |
| CAGCAGT | -0.788 |
| GCAAGCG | 0.279 |
| AATCCAC | -0.423 |
| TTTAACA | -2.01 |
| CATCATG | -0.522 |

| Sequence | uncleaved DNA left (log2) |
| --- | --- |
| AAAGGGC | 0.569 |
| CCGTCTT | -2.11 |
| GCTCCCT | -0.665 |
| GGTTTAG | -0.0554 |
| CCGTCTA | -0.732 |
| TGAACCG | -0.511 |
| TGCTATA | -1.1 |
| CTCCGCG | -0.0613 |
| GCGTAGA | 0.468 |
| TCTAGAG | -0.61 |
| CAAAGAC | 0.101 |
| TCGGTAA | -0.0787 |
| TTTGGGC | -0.259 |
| GTGGGCG | 0.624 |
| GTCTGCA | 0.396 |
| TTTGCCA | -1.14 |
| ACGACCG | -0.51 |
| GTATCGC | 0.249 |
| ATTCCTT | -2.39 |
| GCTAACC | -0.282 |

test system: T3, Rep nickase domain of faba bean necrotic yellows virus; experiment: as above
T3 sequence (residues 1-98, tag not shown): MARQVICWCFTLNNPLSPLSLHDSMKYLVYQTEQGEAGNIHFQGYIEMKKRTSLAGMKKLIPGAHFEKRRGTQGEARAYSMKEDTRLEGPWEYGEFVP
Method: as §1

| Sequence | uncleaved DNA left (log2) |
| --- | --- |
| AGATTCT | 0.0606 |
| TCTCCAG | -0.033 |
| TGTGGCT | 0.0618 |
| CGTGCTA | 0.134 |
| TACTCAA | 0.0565 |
| CCGATCC | -0.0747 |
| CTTTACG | -0.0337 |
| GCAATGC | -0.0437 |
| TCCCATT | -0.0935 |
| CTTGGAA | 0.0213 |
| GAGACTT | -0.147 |
| GCGGTTC | -0.0984 |
| CTATCCT | 0.0153 |
| TACATTA | 0.0315 |
| GTTCCTA | 0.102 |
| CAGCAGT | 0.0675 |
| GCAAGCG | -0.0222 |
| AATCCAC | 0.0346 |
| TTTAACA | 0.081 |
| CATCATG | 0.0481 |

| Sequence | uncleaved DNA left (log2) |
| --- | --- |
| AAAGGGC | 0.03 |
| CCGTCTT | -1.01 |
| GCTCCCT | 0.0648 |
| GGTTTAG | -0.0401 |
| CCGTCTA | -0.0501 |
| TGAACCG | -0.0269 |
| TGCTATA | -0.0992 |
| CTCCGCG | -0.0503 |
| GCGTAGA | 0.0243 |
| TCTAGAG | -0.00975 |
| CAAAGAC | -0.00115 |
| TCGGTAA | -0.24 |
| TTTGGGC | -0.0565 |
| GTGGGCG | 0.0857 |
| GTCTGCA | -0.0705 |
| TTTGCCA | 0.105 |
| ACGACCG | -0.0485 |
| GTATCGC | -0.0488 |
| ATTCCTT | 0.0698 |
| GCTAACC | -0.081 |

test system: T4, Rep nickase domain of maize striate mosaic virus; experiment: as above
T4 sequence (residues 1-117, tag not shown): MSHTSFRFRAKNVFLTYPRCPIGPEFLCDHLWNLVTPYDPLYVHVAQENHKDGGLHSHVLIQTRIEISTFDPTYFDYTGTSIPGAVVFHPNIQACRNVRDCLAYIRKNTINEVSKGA
Method: as §1

| Sequence | uncleaved DNA left (log2) |
| --- | --- |
| AGATTCT | -0.386 |
| TCTCCAG | -1.16 |
| TGTGGCT | -0.00452 |
| CGTGCTA | 0.235 |
| TACTCAA | -0.36 |
| CCGATCC | -0.205 |
| CTTTACG | -1.04 |
| GCAATGC | -1.12 |
| TCCCATT | -0.665 |
| CTTGGAA | 0.0664 |
| GAGACTT | 2.02 |
| GCGGTTC | 1.65 |
| CTATCCT | -0.634 |
| TACATTA | -0.717 |
| GTTCCTA | 1.81 |
| CAGCAGT | -0.912 |
| GCAAGCG | -0.703 |
| AATCCAC | -0.718 |
| TTTAACA | -0.00438 |
| CATCATG | -1.2 |

| Sequence | uncleaved DNA left (log2) |
| --- | --- |
| AAAGGGC | 0.131 |
| CCGTCTT | -0.301 |
| GCTCCCT | 0.309 |
| GGTTTAG | -0.483 |
| CCGTCTA | -0.137 |
| TGAACCG | -0.965 |
| TGCTATA | -0.428 |
| CTCCGCG | -0.803 |
| GCGTAGA | -0.0142 |
| TCTAGAG | -1.19 |
| CAAAGAC | -0.541 |
| TCGGTAA | -0.0114 |
| TTTGGGC | -0.696 |
| GTGGGCG | -0.238 |
| GTCTGCA | 0.474 |
| TTTGCCA | -0.955 |
| ACGACCG | -0.954 |
| GTATCGC | -0.233 |
| ATTCCTT | -0.475 |
| GCTAACC | 0.131 |

test system: T5, Rep nickase domain of porcine circovirus 2; experiment: as above
T5 sequence (residues 2-116, tag not shown): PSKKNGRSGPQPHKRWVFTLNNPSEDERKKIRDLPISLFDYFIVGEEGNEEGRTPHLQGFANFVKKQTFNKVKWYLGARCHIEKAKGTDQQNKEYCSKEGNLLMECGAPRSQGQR
Method: as §1

| Sequence | uncleaved DNA left (log2) |
| --- | --- |
| AGATTCT | -2.88 |
| TCTCCAG | 0.126 |
| TGTGGCT | 0.113 |
| CGTGCTA | -0.0924 |
| TACTCAA | -1.17 |
| CCGATCC | -0.0396 |
| CTTTACG | 0.135 |
| GCAATGC | 0.00919 |
| TCCCATT | -0.695 |
| CTTGGAA | 0.294 |
| GAGACTT | -2.18 |
| GCGGTTC | 0.159 |
| CTATCCT | -1.27 |
| TACATTA | -0.0967 |
| GTTCCTA | 0.0595 |
| CAGCAGT | -2.59 |
| GCAAGCG | 0.135 |
| AATCCAC | -0.0716 |
| TTTAACA | -0.0945 |
| CATCATG | 0.0391 |

| Sequence | uncleaved DNA left (log2) |
| --- | --- |
| AAAGGGC | 0.0472 |
| CCGTCTT | -2.88 |
| GCTCCCT | -0.511 |
| GGTTTAG | 0.0726 |
| CCGTCTA | -0.175 |
| TGAACCG | -0.0282 |
| TGCTATA | -0.158 |
| CTCCGCG | 0.0657 |
| GCGTAGA | 0.106 |
| TCTAGAG | 0.11 |
| CAAAGAC | 0.134 |
| TCGGTAA | -0.0677 |
| TTTGGGC | 0.0771 |
| GTGGGCG | 0.181 |
| GTCTGCA | 0.0753 |
| TTTGCCA | -0.0664 |
| ACGACCG | 0.00696 |
| GTATCGC | 0.124 |
| ATTCCTT | -2.29 |
| GCTAACC | -0.35 |
